In PubChem BioAssay AID488969 (Vanderbilt High Throughput Screening Facility, 2010) one finds z-score data, which are given here for 109 molecules.

The structures appear in SMILES notation. In all, about 110,000 compounds were measured (“z-score”: median about -0.1, highest 2% from about 2 on). Some of the results follow. Calls of active or inactive are those of the source.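 Rule for the calls: active = z-score in the third read window above 3 or below -3; inactive = the rest.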

The assay has as its target Metabotropic glutamate receptor 8 (Rattus norvegicus) (UniProt P70579). In words: mGluR8 Gi/Go-coupled signaling modulation – cell-based, rat, thallium flux, HTS, primary screen (AID 488969). To be noted: HEK293 rat mGluR8, GIRK (G protein-gated inwardly rectifying potassium channel) thallium flux, FluoZin2; at 10 µM; stronger effect = higher value; submaximal glutamate (EC20) added with thallium.
Sequence of UniProt P70579 (P70579 whole entry, looked up): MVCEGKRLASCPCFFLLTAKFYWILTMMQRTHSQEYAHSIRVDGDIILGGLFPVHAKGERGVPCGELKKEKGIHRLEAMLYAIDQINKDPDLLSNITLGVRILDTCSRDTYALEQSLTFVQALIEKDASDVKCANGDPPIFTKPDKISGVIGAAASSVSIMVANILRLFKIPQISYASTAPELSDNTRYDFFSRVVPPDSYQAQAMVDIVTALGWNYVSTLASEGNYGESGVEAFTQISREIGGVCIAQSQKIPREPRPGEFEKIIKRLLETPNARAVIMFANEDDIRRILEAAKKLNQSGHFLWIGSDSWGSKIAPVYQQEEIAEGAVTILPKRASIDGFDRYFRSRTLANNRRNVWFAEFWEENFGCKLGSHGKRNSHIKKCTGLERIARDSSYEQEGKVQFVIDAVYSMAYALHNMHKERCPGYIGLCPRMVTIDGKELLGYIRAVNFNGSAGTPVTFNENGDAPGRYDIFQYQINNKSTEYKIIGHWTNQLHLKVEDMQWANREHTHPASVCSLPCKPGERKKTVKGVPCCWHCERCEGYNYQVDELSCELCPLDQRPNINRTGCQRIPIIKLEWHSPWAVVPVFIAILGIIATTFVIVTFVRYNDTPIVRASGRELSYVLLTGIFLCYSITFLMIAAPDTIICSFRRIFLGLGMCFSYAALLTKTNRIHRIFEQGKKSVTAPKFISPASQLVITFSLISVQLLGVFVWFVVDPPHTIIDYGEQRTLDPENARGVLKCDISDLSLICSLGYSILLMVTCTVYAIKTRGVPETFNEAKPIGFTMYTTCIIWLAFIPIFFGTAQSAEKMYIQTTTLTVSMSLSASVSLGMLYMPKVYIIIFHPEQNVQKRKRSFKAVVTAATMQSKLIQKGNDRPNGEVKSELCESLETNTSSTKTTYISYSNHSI
Regarding `Cc1ccc(C)c(SCC(=O)NCc2ccco2)c1`, the z-score was -0.0688.

The molecule `CCCOc1cccc(NC(=O)c2cc(C)oc2C)c1` gave a z-score of 0.00457. For `CCc1nc2sc(C)c(C)c2c(=O)n1CCO` the value was -0.208; for `C=CCCC(=O)Nc1nc(C)c(-c2csc(Nc3cccc(OC)c3)n2)s1`, -0.207.

Molecule `O=C(c1ccco1)[C@@H]1[C@@H]2C(=O)N(c3ccc(F)cc3)C(=O)[C@@H]2[C@H]2C=Cc3ccccc3N21` yielded a z-score of 0.171. With `CNC(=O)C1CCC(=O)N1Cc1ccc(C)cc1` (centres undefined) the figure was -0.465; with `CC(C)N(N=Nc1ccc([N+](=O)[O-])cc1)C(C)C`, -0.283; with `CCc1ccc2[nH]c(=O)c(CN(CCCN3CCOCC3)C(=O)Nc3ccc(Cl)cc3)cc2c1`, 0.12. For `CCOC(=O)N1CCN(CC(O)COC(CC)c2ccccc2)CC1` (centres undefined) the value was 0.371. For `Cc1csc(SCC(=O)N2CCN(S(=O)(=O)c3ccc(Cl)cc3)CC2)n1` the value was 0.756; for `O=C(NC(Cc1ccccc1)c1nc2ccccc2[nH]1)c1ccc(Cl)c([N+](=O)[O-])c1` (centres undefined), -0.0614; for `C[C@]1(C(=O)O)Cc2oncc2C[C@@H]1C(=O)O`, 0.0908. Take `Cc1nnc(-c2cccc(Br)c2)c2cn(-c3ccccc3)nc12`: the z-score was -0.29.

In turn, `O=C(NCc1ccco1)C1CCCN(S(=O)(=O)c2ccccc2)C1` (centres undefined) had a z-score of -0.248. For `Cc1ccc(S(=O)(=O)N(CC(=O)Nc2cccc([N+](=O)[O-])c2)Cc2ccc(Cl)cc2)cc1` the value was 0.191; for `CCOC(=O)C1C(=O)OC2(CCOC(C)(C)C2)C1C(=O)OCC` (centres undefined), -0.323; for `Cc1cccc(N(Cc2nnc3n2CCCCC3)C(=O)Nc2ccccc2)c1`, -0.175. For `COc1cccc(NC(=O)CSc2nc3ccccc3c(=O)n2CCCC(=O)N2CCCC2)c1` the value was -0.913; for `Cn1c(=O)[nH]c(=O)c2c1nc(Br)n2CCC(=O)c1ccccc1`, 1.07; for `CCc1c(C)n([O-])c2c([n+]1=O)CCC2`, 0.305.

On to `COc1cc(NS(=O)(=O)c2ccc(N/C=C\C(=O)c3ccc(C)cc3)cc2)nc(OC)n1`, for which the z-score was -0.0212. For the molecule `COc1ccc(-n2c(SCc3ccc([N+](=O)[O-])cc3)nnc2-c2ccccc2)cc1`, the z-score was -0.277. For `CC(=O)Nc1ccc(C(=O)CSc2nc3ccccc3n2CC(=O)N2CCCC2)cc1` the value was 0.664; for `COC(=O)c1c(NC(=O)c2ccnn2C)sc(C)c1C`, 0.471; for `CN(CC(=O)NC1CCCCC1)S(=O)(=O)c1ccc(Cl)cc1`, -0.182. With `CCOc1cc(NC(=S)NCCCOC)c(OCC)cc1NC(=O)c1ccco1` the figure was -0.189.

`O=c1c2ccccc2nc2ccc(NCc3ccco3)nn12` came in with a z-score of -0.209. With `Cn1c(-c2ccc(CN3CCCCC3)o2)nc2ccccc21` the figure was -0.0532; with `CNc1ccc(Br)cc(C(=O)/C=C/c2ccc3c(c2)OCO3)c1=O`, 0.111; with `CCOc1ccc(C2CC(=O)NC3=C2C(=O)CCC3)cc1Cl` (centres undefined), 0.397.

Turning to `Cc1c(C(=O)NCc2ccc3c(c2)OCO3)oc2ccc(Br)cc12`, the z-score was -0.297.

For `COc1cc(/C=C(\C#N)C(=O)N2CCOCC2)cc(Br)c1O`, the z-score was -0.0917. The molecule `c1ccc(-c2nc(N3CCCCC3)nc3ccccc23)cc1` returned a z-score of 0.166.

`c1ccc(CSc2nnc(-c3c[nH]c4ccccc34)o2)cc1` showed a z-score of 0.0482.

The molecule `COc1ccc(/C=C2\OC(=S)N(C)C2=O)cc1` registered a z-score of -0.218.

As to `COc1cccc(CNCC(=O)N2C(C)CCCC2C)c1` (centres undefined), the z-score is 0.0289.

`Cc1ccc(N2CC(C(=O)Nc3ccc(N(C)C)cc3)CC2=O)cc1C` (centres undefined) displayed a z-score of -0.467. With `COCc1nnc(NC(=O)c2ccc(Cl)cc2[N+](=O)[O-])s1` the figure was -0.144; with `N#Cc1c(-c2ccc(F)cc2)noc1N`, -0.0626. In the case of `Clc1ccc(-n2c(SC/C=C/c3ccccc3)nnc2-c2cccnc2)cc1`, the z-score stood at 0.14.

Molecule `CCCCC(=O)Nc1ccc(C(=O)NNC(=O)CCc2ccccc2)cc1` yielded a z-score of -0.0764. `CCN(CCCNC(=O)C1CCC(=O)N1C1CCCC1)c1cccc(C)c1` (centres undefined) came in with a z-score of 0.183. With `Cc1cc(C)cc(OCC(=O)Nc2cccc(C(=O)O)c2)c1` the figure was -1.19; with `COc1cc(C2CC(=O)c3c([nH]c(C(=O)OCCOC(C)C)c3C)C2)cc(OC)c1OC` (centres undefined), 0.356; with `C/C(=N\NC(=O)COc1ccc(C(C)(C)C)cc1)c1cc2ccccc2o1`, -0.0651. Molecule `COc1ccc(C(C(=O)NC2CCCCC2)N(C(=O)CCl)c2cccc(Cl)c2)cc1` (centres undefined) had a z-score of -0.118.

`COc1ccc(CC(=O)Nc2ccc3c(c2)CCC3)cc1OC` yielded a z-score of -0.0198. For `CN(CC(=O)Nc1ccc(Cl)c(Cl)c1)C(=O)C12CC3CC(CC(C3)C1)C2` the value was -0.069. With `COC(=O)c1ccc(OCCN2C3=NCCN3c3ccccc32)cc1` the figure was 0.981; with `CCCCOC(=O)Nc1cc(C)c(Cl)cc1OC`, -0.541; with `CC(C)NC(=O)/C(=C/c1ccco1)c1ccccc1`, 2.43.

Molecule `C=CCNC(=O)NC(=O)COC(=O)c1ccccc1Sc1ccc(C(F)(F)F)cc1[N+](=O)[O-]` came in with a z-score of -0.423. With `Cc1ccccc1N(C(=O)Cc1cccs1)C(C(=O)NCC1CCCO1)c1cccnc1` (centres undefined) the figure was -0.494; with `CC(C)CCNC(=O)Cn1c(=O)oc2cc(S(=O)(=O)N3CCc4ccccc43)ccc21`, -0.186. With `COc1ccc(Oc2c(Cl)cnn(-c3ccc(Cl)c(Cl)c3)c2=O)cc1` the figure was -0.379.

The molecule `CCS(CC)=NS(=O)(=O)c1ccc(NC(C)=O)cc1` returned a z-score of -0.155. With `CCOC(=O)Cn1c(=O)oc2cc(S(=O)(=O)NCCC(C)C)ccc21` the figure was -0.204; with `O=C(O)c1cc(=O)cc(C(=O)O)[nH]1`, 0.06.

As for `N#C/C(=C\c1cccc([N+](=O)[O-])c1)c1nnc2n1CCCCC2`, the z-score was -1.66. For `O=C(COc1ccccc1Cl)NCCc1ccc2c(c1)OCCO2` the value was -0.272; for `COC(=O)CCCc1nc2ccccc2s1`, -0.393. With `Cc1cc(NC(=O)Cn2cnc3sc(C)c(-c4ccccc4)c3c2=O)no1` the figure was -0.368. For `C=CCn1c(SCC(=O)Nc2nc(C)cs2)nnc1C(CO)NC(=O)c1ccccc1` (centres undefined) the value was 0.435. `Cc1ccc(N2C(=O)[C@@H]3[C@H](C2=O)C2c4ccccc4C=CN2[C@@H]3C(=O)c2ccco2)cc1` (some centres undefined) had a z-score of -0.0364. With `C#CCn1cc(C=C2C(=O)c3ccccc3C2=O)c2ccccc21` the figure was -0.45; with `Cc1ccc(S(=O)(=O)/N=C2\C(=O)c3ccccc3C([O-])=C2n2cc[n+](CCC(C)C)c2)cc1`, -0.914; with `C=CCn1cnc2scc(-c3ccc(C)cc3)c2c1=O`, -0.991. For `CCOc1ccc(/C=N/NC(=O)c2ccc(CSc3nc4ccccc4[nH]3)cc2)cc1` the value was -0.0306; for `CCOCCCNC(=O)C1CCN(S(=O)(=O)N2CCCCC2)CC1`, -0.0455.

Consider `CCN1CCCC1CNC(=O)C1c2ccccc2C(=O)N(CCOC)C1c1ccc(F)cc1` (centres undefined), for which the z-score was -0.425. Regarding `CCNC(=O)NC(C(=O)OC)C12CC3CC(CC(C3)C1)C2` (centres undefined), the z-score came out at 0.104. Molecule `C=CCN1C(=O)/C(=C\c2ccc(Cl)cc2)N=C1SCC(=O)NCCC` yielded a z-score of -1.09. Consider `Cc1ccc(NC(=O)C2Cc3ccccc3CN2C(=O)c2ccccc2)cc1Cl` (centres undefined), for which the z-score was -0.147.

As for `CSc1ccc(S(=O)(=O)Nc2c(C)cccc2C)cc1`, the z-score was -0.155. With `Cn1c(NNC(=O)c2ccc(C(C)(C)C)cc2)cc(=O)n(C)c1=O` the figure was -0.0623; with `Cc1cc(N2CCN(C(c3ccccc3)c3ccccc3)CC2)n2ncnc2n1`, -0.234.

Turning to `Cc1ccc(S(=O)(=O)N(CC(=O)N2CCCC2)C2CCCCC2)cc1`, the z-score is -0.771. `CC(C)C(NC(=O)OCc1ccccc1)C(=O)OCC(=O)NCc1ccco1` (centres undefined) yielded a z-score of -0.533. For `O=C(OCc1cc2ccccc2[nH]c1=O)c1ccccn1` the value was 1.93. With `COc1ccccc1OCCC(=O)OCC(=O)Nc1cccc(Br)c1` the figure was 0.0343; with `CN(Cc1ccccc1)C(=O)c1cccc(NC(=O)c2ccco2)c1`, -1.4; with `CCNC(=S)N1CCNC(=O)C1CC(=O)OC` (centres undefined), 0.191. For `COC(=O)c1sc2ncn(-n3c(C)ccc3C)c(=O)c2c1C` the value was -1.04; for `O=C(c1ccccc1Sc1cccc2ccccc12)N1CCOCC1`, -0.326.

`CSc1ccc(Cl)c(C(=O)NCCOc2cc(C(C)C)ccc2C)c1`: the z-score is 1.16. With `CCN(C(=O)c1ccc(S(C)(=O)=O)cc1)C12CC3CC(CC(C3)C1)C2` the figure was 0.118. Take `Cc1ccc(C(c2nnnn2C2CCCC2)N2CCN(c3nc4ccccc4s3)CC2)cc1` (centres undefined): the z-score is -0.351. For `O=C(OCc1nc(-c2ccccc2)oc1COC(=O)c1ccco1)c1ccco1` the value was -0.0571; for `COc1cc(C)nc(N2CCCC(C(=O)Nc3cc(Cl)ccc3OC)C2)n1` (centres undefined), -0.666. Turning to `CN1CCN(S(=O)(=O)c2ccc3c4c(cccc24)C(=O)N3)CC1`, the z-score is -0.000659. With `CC(=O)N1CCC(=NNS(=O)(=O)c2cccc([N+](=O)[O-])c2)CC1` the figure was 0.187; with `Cc1[nH]n(-c2ccccc2)c(=O)c1N=Nc1cccc(S(=O)(=O)N2CCOCC2)c1`, 0.327. With `COc1ccc(C(=O)n2nc(-c3ccccc3)nc2N)cc1OC` the figure was -0.577; with `N#C/C(C(=O)N1CCOCC1)=C1/SC(Cc2ccccc2)C(=O)N1c1ccccc1` (centres undefined), 0.437.

`Cc1ccc(OS(=O)Nc2cccc3nccnc23)cc1` (centres undefined) came in with a z-score of 0.149. For `COc1ccccc1NC(=O)c1ccc(SCC(=O)NCc2ccccc2Cl)c([N+](=O)[O-])c1` the value was -0.169; for `COc1ccc(-c2cc3nc4n(c(=O)c3s2)CCC4)cc1`, 0.715. For `CCC(C)[C@H](NC(=O)NCc1cccs1)C(=O)OC` (some centres undefined) the value was -0.445; for `COc1ccc(CCNC(=O)COc2ccc(-c3ccc(C)cc3)cc2)cc1OC`, -0.117; for `O=C(NNC(=S)NC(=O)c1cccnc1)c1ccc(Cl)cc1`, 0.171. For `CCOc1ccc(NC(=O)c2ccncc2)cc1` the value was 0.0505; for `CC(C)N=C(Nc1ccccc1)c1cccnc1`, 0.0587. For the molecule `CC(C)NC(=O)c1nc2ccccc2s1`, the z-score was active: 3.05. For `Cc1ccc(-n2c(C)cc(/C=N/Nc3ccc([N+](=O)[O-])cn3)c2C)c(C)c1` the value was -0.033; for `CC(=O)Nc1ccccc1-c1nn[nH]n1`, -0.175. With `O=C(Nn1cnnc1)C(Sc1ccccc1)c1ccccc1` (centres undefined) the figure was -0.0096. With `O=C(COc1ccccc1/C=C1/NC(=O)NC1=O)Nc1ccccc1` the figure was 0.0997; with `O=[N+]([O-])c1cc(C(F)(F)F)cc([N+](=O)[O-])c1N1CCN(S(=O)(=O)c2ccccc2)CC1`, -0.181; with `CC(=O)Nc1ccc(C(=O)OCC(=O)Nc2ccc([N+](=O)[O-])cc2C(F)(F)F)cc1`, -0.321.
